Measurements as given in US6197752A, “Glycomimetics as selectin antagonists and pharmaceuticals having antiinflammatory activity prepared therefrom” (Glycorex AB, priority 1995, dated 2001).

Tested on: leukocyte adhesion on the endothelium
Test: LPS-induced leukocyte adhesion in vivo, intravital microscopy in the mesenterium of the rat
Conditions: 50 mg/kg, 17 days p.o., Lewis (m)
Text: In inflammatory processes and other states which activate the cytokines, a critical part is played by the destruction of tissue by means of leukocytes which migrate in or which block the microcirculation. The first phase, which is critical for the subsequent course of the disease, is the activation of leukocytes within the blood stream, especially in the pre- and post-capillary area. […] All subsequent leukocyte effects, i.e. active migration through the vessel wall and subsequent oriented migration in the tissue, are secondary reactions (Harlan, J. M., Leukocyte-endothelial interaction, Blood 65, 513-525,1985). […]
The induced adhesion of leukocytes is quantified by an investigation technique involving intravital microscopy in the mesenterium of the rat (Atherton A. and Born G.V.R., Quantitative investigations of the adhesiveness of circulating polymorphonuclear leukocytes to blood vessel walls. J. Physiol. 222, 447-474,1972; Seiffge, D. Methoden zur Untersuchung der Rezeptor-vermittelten Interaktion zwischen Leukozyten und Endotheizellen im Entzundungsgeschehen [Methods of investigating receptor-mediated interaction between leukocytes and endothelial cells in the case of inflammation] in: Ersatz- und Erganzungsmethoden zu Tierversuchen in der biomedizinischen Forschung, Schoffl, H. et al., (eds.) Springer, 1995 (in press)). […]

## C[C@@H]1O[C@@H](CCCOC(=O)N2CCC(C(=O)O)CC2)[C@@H](O)[C@H](O)[C@@H]1O [Compound 12c]
218 +/- 10.8 g group
  inhibition of leukocyte adhesion: 11%
237 +/- 22.7 g group
  inhibition of leukocyte adhesion: 74%
